From US9040042B2, “Optimized antibodies that target HM1.24” (Xencor, Inc., priority 2006, dated 2015)

Key:
PBMCs = experiment: Flow cytometry binding of anti-HM1.24 antibody to cell types in PBMCs; design: species or system human; details: PMNs, B-cells, monocytes, NK cells, T cells; 6-color flow cytometry; FIG. 7
Description: Flow cytometry was used to confirm the binding of anti-HM1.24 antibody to HM1.24 antigen and plasma cells, as well as to evaluate the expression of HM1.24 on various cell types in PBMCs. 1×10^6 PBMCs were first mixed with either unlabelled HM1.24_H0L0_IgG1_WT or isotype control IgG1 (hIgG_Kappa, from Sigma) antibody. A mixture of cell type specific labeled antibodies (all mouse anti-human CD, BD Biosciences) was then added to tag the specific cell types in the PBMCs. The following antibodies were used: anti-CD15-FITC (BD 555401) for labeling PMNs, anti-CD19-PerCP-Cy5.5 (BD 3409510) for labeling B-cells, anti-CD14-PE-Cy7 (BD 557742) for labeling monocytes, ant-CD56-APC (BD 555518) for labeling NK cells, and anti-CD3-APC-Cy3 (BD 557832) for labeling T cells. After incubation on ice for 30 min. in the dark, the cells were washed and mixed with R-PE conjugated F(ab′)2 fragment Goat anti-human IgG (against fc-gamma fragment) to specifically label the primary test antibody (anti-HM1.24 or isotype control). After incubation, cells were washed again and analyzed by 6-color flow cytometry using a FACS Canto II flow cytometer to determine the expression of HM1.24 on any of these specific cell types in PBMCs.

[1] = test system: HM1.24+ multiple myeloma RPMI 8226 cells; experiment: Flow cytometry binding to HM1.24+ multiple myeloma RPMI 8226 cells; details: multiple myeloma cell line RPMI 8226, 1 million cells; FIG. 8
Description: Flow cytometry was used to confirm the binding of anti-HM1.24 antibody to HM1.24 antigen and plasma cells, as well as to evaluate the expression of HM1.24 on various cell types in PBMCs. 1×10^6 PBMCs were first mixed with either unlabelled HM1.24_H0L0_IgG1_WT or isotype control IgG1 (hIgG_Kappa, from Sigma) antibody. A mixture of cell type specific labeled antibodies (all mouse anti-human CD, BD Biosciences) was then added to tag the specific cell types in the PBMCs. The following antibodies were used: anti-CD15-FITC (BD 555401) for labeling PMNs, anti-CD19-PerCP-Cy5.5 (BD 3409510) for labeling B-cells, anti-CD14-PE-Cy7 (BD 557742) for labeling monocytes, ant-CD56-APC (BD 555518) for labeling NK cells, and anti-CD3-APC-Cy3 (BD 557832) for labeling T cells. After incubation on ice for 30 min. in the dark, the cells were washed and mixed with R-PE conjugated F(ab′)2 fragment Goat anti-human IgG (against fc-gamma fragment) to specifically label the primary test antibody (anti-HM1.24 or isotype control). After incubation, cells were washed again and analyzed by 6-color flow cytometry using a FACS Canto II flow cytometer to determine the expression of HM1.24 on any of these specific cell types in PBMCs. […]

HM1.24+ RPMI8226 cells = experiment: Cell-based ADCC assay (LDH release), PBMC effector cells; details: RPMI8226 target cells, 4 hours at 37° C., FIG. 9
Description: The capacity of the variant antibodies to mediate effector function against HM1.24 expressing cells was tested in a cell-based ADCC assay (FIG. 9). Human peripheral blood monocytes (PBMCs) were isolated from leukopaks and used as effector cells, and HM1.24+ RPMI8226 cells were used as target cells. 10,0000 RPMI8226 target cells were incubated with 450,000 effector cells (non-adherent PBMC cells from a healthy donor) in 100 ul of 1% FBS/RPMI1640 ADCC assay media in the presence of antibodies. After 4 hours at 37° C., relative ADCC activity was detected using fluorescent LDH (lactate dehydrogenase release) detection system from Promega as per manufacturer's protocol. The ADCC activity was determined by the following: ((Experimental Value−(Effector and Target))/(Total Target−Target Alone))*100 where Total Target value is RPMI8226 cells lysed with 1% TritonX100. […] However, optimization of the antibody by engineering Fc variants with enhanced FcγR affinity enables a significant amount of ADCC activity.
The humanized variants were also screened for their capacity to mediate effector function against HM1.24+ cells in an ADCC assay, as described above. […]
The ability of the variant anti-HM1.24 antibodies to mediate effector function was evaluated in an ADCC assay, as described above.

B1: HM1.24_H0L0_IgG1_WT: Anti-HM1.24 antibody with murine WT VH (H0) and VL (L0), human kappa and IgG1 constant regions (antibody)
heavy: QVQLQQSGAELARPGASVKLSCKASGYTFTPYWMQWVKQRPGQGLEWIGSIFPGDGDTRYSQKFKGKATLTADKSSSTAYMQLSILAFEDSAVYYCARGLRRGGYYFDYWGQGTTLTVSS[not shown - human IgG1 constant region]
light: DIVMTQSHKFMSTSVGDRVSITCKASQDVNTAVAWYQQKPGQSPKLLIYSASNRYTGVPDRITGSGSGTDFTFTISSVQAEDLALYYCQQHYSTPFTFGSGTKLEIKRTVAAPSVFIFPPSDEQLKSGTASVVCLLNNFYPREAKVQWKVDNALQSGNSQESVTEQDSKDSTYSLSSTLTLSKADYEKHKVYACEVTHQGLSSPVTKSFNRGEC
binding to PBMC cell types (HM1.24 expression) (PBMCs): not expressed to a significant degree | binding to plasma cells [1]: bind well | ADCC activity (HM1.24+ RPMI8226 cells): does not mediate ADCC
